The other results are listed elsewhere or left out. Viral Rep nickase domains cut single-stranded DNA in vitro (3 µM enzyme, 1 h, 37 °C); shown is the middle of each 90-letter strand. A value is the log2 ratio of uncut reads to the pool without enzyme; strong cutting gives strongly negative numbers. There is no active / inactive call. The scaling is to total reads, so uncut sequences can rise above 0 when many others are cut.
Tests used:
Experiment in all cases: uncleaved DNA left, log2 of reads against the no-enzyme library (log2 ratio); higher = less cleavage (more negative = more Rep cleavage of the k-mer); sequences stand for … in CTCGTCCG…ACCGGAGA
[1] = test system: T1, Rep nickase domain of Muscovy duck circovirus
T1 sequence (residues 1-111 of Rep, tag left off): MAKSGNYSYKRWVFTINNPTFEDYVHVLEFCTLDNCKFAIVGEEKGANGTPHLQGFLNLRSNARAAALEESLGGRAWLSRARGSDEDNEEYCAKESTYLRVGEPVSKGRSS
Description: (§1)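 A pool of 90-nt single-stranded DNAs with seven random bases just before the constant AC of the nick site (name = the seven bases) was cut by 3 µM recombinant His6-SUMO-tagged Rep nickase domain (300 nM DNA, 50 mM HEPES pH 8.0, 50 mM NaCl, 1 mM MnCl2, 1 h, 37 °C, three replicates). Uncut DNA was amplified and sequenced.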

[2] = test system: T2, Rep nickase domain of banana bunchy top virus
T2 sequence (residues 1-94 of Rep, tag left off): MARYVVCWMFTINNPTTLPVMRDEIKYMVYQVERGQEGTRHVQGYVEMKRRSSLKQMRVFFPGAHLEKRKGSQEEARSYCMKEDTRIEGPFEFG
Description: as §1

[3] = test system: T3, Rep nickase domain of cabbage leaf curl virus
T3 sequence (residues 1-116 of Rep, tag left off): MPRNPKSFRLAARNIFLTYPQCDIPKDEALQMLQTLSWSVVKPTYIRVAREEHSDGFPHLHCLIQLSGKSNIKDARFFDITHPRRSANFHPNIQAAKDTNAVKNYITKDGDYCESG
Description: as §1

[4] = test system: T4, Rep nickase domain of chickpea chlorotic dwarf virus
T4 sequence (residues 1-124 of Rep, tag left off): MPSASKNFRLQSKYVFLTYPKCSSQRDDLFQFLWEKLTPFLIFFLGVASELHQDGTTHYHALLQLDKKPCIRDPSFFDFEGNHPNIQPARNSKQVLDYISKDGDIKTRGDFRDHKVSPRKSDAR
Description: as §1

[5] = test system: T5, Rep nickase domain of faba bean necrotic yellows virus
T5 sequence (residues 1-98 of Rep, tag left off): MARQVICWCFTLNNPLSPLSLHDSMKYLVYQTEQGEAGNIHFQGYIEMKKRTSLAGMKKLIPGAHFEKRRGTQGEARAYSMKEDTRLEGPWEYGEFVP
Description: as §1

[6] = test system: T6, Rep nickase domain of maize striate mosaic virus
T6 sequence (residues 1-117 of Rep, tag left off): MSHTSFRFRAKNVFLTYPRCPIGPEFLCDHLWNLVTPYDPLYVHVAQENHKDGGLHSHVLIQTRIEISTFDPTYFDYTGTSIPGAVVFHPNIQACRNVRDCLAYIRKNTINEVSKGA
Description: as §1

[7] = test system: T7, Rep nickase domain of porcine circovirus 2
T7 sequence (residues 2-116 of Rep, tag left off): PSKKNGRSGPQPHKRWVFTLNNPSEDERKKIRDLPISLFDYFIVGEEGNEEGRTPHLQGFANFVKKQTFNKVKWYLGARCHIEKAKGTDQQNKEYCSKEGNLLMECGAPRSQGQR
Description: as §1

[8] = test system: T8, Rep nickase domain of tomato golden mosaic virus
T8 sequence (residues 1-124 of Rep, tag left off): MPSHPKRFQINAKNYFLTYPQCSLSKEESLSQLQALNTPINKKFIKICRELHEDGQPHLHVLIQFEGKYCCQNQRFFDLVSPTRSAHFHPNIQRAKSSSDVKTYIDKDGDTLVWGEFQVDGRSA
Description: as §1

[9] = test system: T9, Rep nickase domain of tomato yellow leaf curl virus
T9 sequence (residues 1-136 of Rep, tag left off): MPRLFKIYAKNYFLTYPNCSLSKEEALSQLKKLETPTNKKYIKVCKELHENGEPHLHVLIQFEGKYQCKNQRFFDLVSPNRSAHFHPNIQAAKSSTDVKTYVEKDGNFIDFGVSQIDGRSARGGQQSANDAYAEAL
Description: as §1

[10] = test system: T10, Rep nickase domain of wheat dwarf virus
T10 sequence (residues 1-137 of Rep, tag left off): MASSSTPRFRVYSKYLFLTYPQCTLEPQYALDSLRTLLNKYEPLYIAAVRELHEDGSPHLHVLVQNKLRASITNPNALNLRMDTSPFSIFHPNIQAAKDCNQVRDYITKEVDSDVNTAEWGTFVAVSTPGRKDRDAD
Description: as §1

Row | Sequence | uncleaved DNA left (log2) [1] | uncleaved DNA left (log2) [2] | uncleaved DNA left (log2) [3] | uncleaved DNA left (log2) [4] | uncleaved DNA left (log2) [5] | uncleaved DNA left (log2) [6] | uncleaved DNA left (log2) [7] | uncleaved DNA left (log2) [8] | uncleaved DNA left (log2) [9] | uncleaved DNA left (log2) [10]
1 | AAGGGCC | 0.106 | 0.152 | 0.175 | 0.563 | 0.0811 | 0.322 | 0.265 | 0.192 | 0.0675 | 0.0561
2 | TCGAGCC | -0.00738 | -0.000936 | 0.0782 | 0.402 | 0.00504 | -0.0704 | -0.578 | -0.0759 | -0.0249 | 0.0314
3 | TCCTCTT | -1.92 | -0.23 | -0.139 | -1.87 | 0.0863 | -0.322 | -2.93 | -0.0555 | -0.195 | -0.172
4 | AACGCAG | 0.0454 | 0.031 | -0.28 | -0.408 | 0.0883 | -0.875 | 0.177 | 0.02 | 0.0678 | 0.0153
5 | GGTAGGA | 0.15 | 0.184 | 0.621 | 1.06 | 0.245 | 1.28 | 0.255 | 0.115 | 0.0977 | 0.232
6 | ACCTATC | 0.0188 | -0.141 | -0.211 | -0.389 | -0.0323 | -0.994 | -0.0724 | -0.0106 | -0.0441 | -0.0136
7 | GATGCAG | -0.0681 | -0.0961 | -0.602 | -0.408 | -0.00838 | -0.899 | -0.0119 | -0.00551 | 0.0441 | -0.0441
8 | GATTTCA | -0.557 | -0.133 | 0.203 | 0.208 | 0.000565 | 1.23 | -0.499 | 0.0735 | 0.0482 | 0.144
9 | GGTGCGG | 0.0852 | -0.011 | 0.179 | 0.559 | -0.00447 | 0.605 | 0.0807 | 0.077 | -0.0999 | -0.018
10 | CTGAGTC | 0.0706 | 0.0195 | -0.0863 | -0.118 | 0.00938 | -0.576 | 0.0537 | -0.0319 | 0.0266 | 0.0222
11 | GAAGGCC | 0.0202 | 0.0653 | 0.364 | 0.797 | 0.00268 | 0.546 | 0.0112 | -0.000366 | 0.127 | 0.139
12 | ATGGGCT | 0.0382 | 0.0173 | 0.0966 | 0.394 | 0.0693 | 0.519 | 0.0971 | 0.0588 | -0.191 | -0.117
13 | GGCGAGA | 0.12 | 0.136 | 0.819 | 1.9 | 0.141 | 2.19 | 0.239 | 0.0966 | 0.199 | 0.185
14 | ACATATA | 0.1 | 0.0686 | -0.195 | -1.39 | 0.111 | -0.744 | 0.101 | 0.172 | 0.119 | 0.0792
15 | TGCCGGC | 0.0368 | 0.0376 | 0.098 | 0.0812 | 0.0829 | -0.0346 | 0.0121 | 0.0256 | 0.0319 | -0.0793
16 | GAACCAT | 0.0233 | 0.099 | 0.691 | 0.864 | -0.0155 | 1.95 | 0.172 | 0.0494 | 0.111 | 0.206
17 | TACTTCA | -1.61 | -0.331 | -0.348 | -2.47 | -0.0557 | -0.664 | -3.15 | -0.0992 | 0.0986 | 0.0442
18 | GCCATTG | -0.131 | -0.101 | -0.556 | -0.26 | 0.0316 | -0.833 | 0.0662 | 0.0612 | 0.0442 | -0.126
19 | CAACGAT | 0.015 | -0.028 | -0.187 | -1.39 | -0.00736 | 0.266 | -0.0136 | 0.037 | -0.265 | -0.212
20 | GACAACG | -0.0228 | -0.0769 | -0.787 | -0.786 | -0.0509 | -1.21 | 0.0616 | -0.08 | -0.0384 | -0.0577
21 | TAAGTCT | 0.0143 | -0.101 | -3.57 | -3.16 | -0.0292 | -2.01 | -0.559 | -2.37 | -0.0149 | -3.45
22 | TTGATTC | -0.0107 | -0.0557 | 0.131 | -0.124 | -0.168 | -0.79 | 0.00911 | 0.0114 | -0.0167 | -0.0594
23 | TAAACGT | 0.124 | 0.0999 | -3.03 | -2.75 | 0.0437 | -0.769 | -0.054 | -0.511 | 0.0704 | -1.48
24 | GGTACGG | 0.0136 | -0.0203 | 0.486 | 1.59 | -0.0435 | 2.09 | 0.0751 | 0.0916 | 0.0286 | 0.0986
25 | CGCTGCT | -0.455 | -0.213 | -0.394 | -0.723 | -0.224 | -0.845 | -1.45 | -0.179 | -0.118 | -0.226
26 | GTCATGC | 0.082 | -0.0242 | 0.0702 | 0.292 | -0.188 | -0.00979 | -0.0414 | 0.0368 | -0.0857 | -0.0566
27 | GAGTAAA | 0.19 | 0.134 | 0.328 | 0.738 | -0.112 | 1.21 | -2.24 | 0.149 | 0.131 | 0.0913
28 | TTTAAAG | -0.0504 | -0.211 | -0.819 | -0.61 | -0.0271 | -1.21 | 0.111 | -0.0293 | -0.066 | -0.0608
29 | GTTGCCA | -0.0323 | -0.0393 | 0.231 | 0.835 | -0.0282 | 1.39 | 0.0519 | 0.0713 | 0.00358 | 0.0275
30 | CCGTTAG | -0.074 | -0.281 | -0.863 | -0.485 | -0.0827 | -1.11 | -0.111 | -0.209 | -0.143 | -0.3
